From PubChem BioAssay AID2675 (National Center for Advancing Translational Sciences (NCATS), 2010)
About 100 (0.036%) of roughly 280,000 compounds were called active. Inconclusive means that the source gave no clear call. Such entries were picked first, then a sample of the others. Calls come from the whole dose curve; as a rule, active = well fitted inhibition curve with a large enough effect in the signal ratio, with a control signal flat (not every such curve was filed as active); inconclusive = small, poorly fitted or top-dose-only effect, or effect the other way, or a change in a side signal; inactive = no such curve, though single readings can be large or run the other way; the % refers to the signal ratio. A potency beside an inconclusive call is a rough fit, not a confirmed value. “Side channel” marks fits to a control or component signal instead of the main read-out.

Molecular target: Muscleblind-like protein 1 (Homo sapiens) (UniProt Q9NR56)
Sequence of UniProt Q9NR56 (Q9NR56 whole entry, looked up): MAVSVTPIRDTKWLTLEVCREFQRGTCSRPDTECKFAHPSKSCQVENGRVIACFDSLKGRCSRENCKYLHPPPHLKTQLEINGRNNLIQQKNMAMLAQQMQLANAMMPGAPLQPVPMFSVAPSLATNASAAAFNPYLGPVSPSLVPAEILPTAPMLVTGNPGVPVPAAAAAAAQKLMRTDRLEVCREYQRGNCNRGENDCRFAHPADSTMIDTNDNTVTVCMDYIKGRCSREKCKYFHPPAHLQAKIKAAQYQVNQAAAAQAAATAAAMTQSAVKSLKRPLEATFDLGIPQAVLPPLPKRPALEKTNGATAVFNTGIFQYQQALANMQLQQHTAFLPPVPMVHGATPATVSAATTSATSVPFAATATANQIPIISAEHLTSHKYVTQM
Test: qHTS Assay for Inhibitors of MBNL1-poly(CUG) RNA binding
Settings: TR-FRET MBNL1-His/biotin-(CUG)12 binding, 665/545 ratio; series mostly up to 57.5 µM
Summary of the method: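 TR-FRET readout: Ex 340 nm, 665/545 nm emission ratio, normalized to buffer-only (basal) and MBNL1-(CUG)12 controls. Complex of MBNL1-His with Biotin-(CUG)12, compounds 92 nM–58 uM, incubated 60 min at room temperature.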
Potency is the fitted concentration of half-maximal effect; tags give direction and shape of the fitted curve or compound fluorescence and quenching.

| SMILES | Potency |
| --- | --- |
| COc1cc(CCC(=O)N2CCN(c3ccc([N+](=O)[O-])cc3)CC2)cc(OC)c1OC | inconclusive: 15.8 µM [quencher, partial curve] |
| CCOc1cccc(Nc2ccc([N+](=O)[O-])cn2)c1 | inconclusive: 14.1 µM [quencher, side channel, partial curve] |
| Cc1ccc2c(c1)NC(=O)CC(c1ccccc1)=N2 | inconclusive: 50.1 µM [inhibitor, single point] |
| COc1ccc(OC2OC3COC(C)(C)OC3C(O)C2NC(C)=O)cc1 (stereo unspecified) | inconclusive: 8.91 µM [quencher, side channel, single point] |
| O=C1NN(c2ccc(Br)cc2)C(=O)/C1=C\c1ccc(O)cc1O | inconclusive: 14.1 µM [quencher, side channel, partial curve] |
| CCn1c(SCC(=O)N2CCCC2)nnc1-c1ccc(N)cc1 | inconclusive: 0.126 µM [quencher, side channel, full curve, poor fit] |
| Oc1c(C=Nc2ccccc2)sc2ccccc12 | inactive |
| Cc1ccc(SCC(=O)Nc2cccc(-c3nnc(-c4ccco4)o3)c2)cc1 | inconclusive: 0.708 µM [quencher, side channel, full curve, poor fit] |
| O=[N+]([O-])c1cccc(-c2csc(CS(=O)(=O)Cc3ccco3)n2)c1 | inconclusive: 17.8 µM [quencher, side channel, partial curve] |
| NC(=O)CC[C@@H]1NC(=O)[C@H](Cc2ccc(O)cc2)NC(=O)c2cc([N+](=O)[O-])cc(F)c2OCC[C@@H](C(N)=O)NC1=O | inconclusive: 15.8 µM [quencher, side channel, partial curve] |
| N#Cc1cc2[nH]c3ccccc3c2[n+](-c2ccc([N+](=O)[O-])cc2)c1N | inconclusive: 11.2 µM [quencher, side channel, partial curve] |
| O=C(OCc1ccc([N+](=O)[O-])cc1Cl)c1cnccn1 | inconclusive: 6.31 µM [quencher, side channel, partial curve] |
| COc1ccc(-c2cc3ccc(OCC(N)=O)cc3oc2=O)cc1OC | inconclusive: 5.01 µM [quencher, full curve] |
| Cc1ccc2nc3c(cc(C#N)c(=O)n3-c3nccs3)c(=O)n2c1 | inconclusive: 5.01 µM [quencher, side channel, partial curve] |
| COc1ccc(CNC(=O)c2nc(S(=O)(=O)Cc3ccccc3)ncc2Cl)cc1 | inactive |
| COc1ccc(NC(=O)CSc2nc(C)cc(C)n2)c([N+](=O)[O-])c1 | inconclusive: 22.4 µM [quencher, side channel, partial curve] |
| CC(C)(C)OC(=O)N[C@@H](Cc1ccccc1)c1nnc(S(=O)(=O)Cc2cccc(F)c2)o1 | inactive |
| CCOc1ccc(NC(=O)N2CCN(CC)CC2)cc1 | inconclusive: 7.08 µM [fluorescent, side channel, single point] |
| COc1ccc(/C(O)=C2/C(=O)C(=O)N(c3ccccn3)C2c2ccc(OC)c(OC)c2)cc1 (stereo unspecified) | inconclusive: 28.2 µM [quencher, side channel, single point] |
| Cc1cc(C(=O)N/N=C/c2ccc(C)o2)c2ccccc2n1 | inconclusive: 14.1 µM [quencher, side channel, single point] |
| C=CCn1c(C)cc(C(=O)CSc2nnc3c(Cl)cc(Cl)cn23)c1C | inconclusive: 17.8 µM [quencher, side channel, partial curve] |

| SMILES | Potency |
| --- | --- |
| Cn1nc(-c2ccc(N3CCOCC3)c(NS(=O)(=O)c3ccc(Cl)cc3)c2)c2ccccc2c1=O | inactive |
| CC(=O)Nc1ccc(Nc2nc3ccccc3n3cnnc23)cc1 | inconclusive: 3.55 µM [quencher, single point] |
| CCOC(=O)N/N=C\c1cccc(OC)c1 | inconclusive: 28.2 µM [quencher, side channel, partial curve] |
| O=S(=O)(Nc1cc(F)ccc1F)c1cccc2nonc12 | inconclusive: 11.2 µM [quencher, side channel, partial curve] |
| CC(C)NS(=O)(=O)c1ccc(N2C(=O)c3ccccc3C2=O)cc1 | inconclusive: 14.1 µM [quencher, side channel, partial curve] |
| CC(C)CN1C(=O)c2ccc(C(=O)Nc3c[nH]c(=O)[nH]c3=O)cc2C1=O | inconclusive: 3.16 µM [quencher, full curve] |
| COc1ccc(CCN2C(=O)c3ccccc3C2(O)c2ncc[nH]2)cc1OC (stereo unspecified) | inconclusive: 10 µM [quencher, side channel, partial curve] |
| COC(=O)c1ccc(OCC(=O)Nc2nn(-c3ccccc3)nc2C(N)=O)cc1 | inconclusive: 3.16 µM [fluorescent, side channel, full curve] |
| CCn1cc(-c2cc(C(F)(F)F)n3nc(C(=O)O)cc3n2)c(C)n1 | inconclusive: 50.1 µM [inhibitor, partial curve] |
| CC(Sc1ccc2nnc(-c3ccc(F)cc3)n2n1)C(=O)O (stereo unspecified) | inconclusive: 39.8 µM [quencher, side channel, single point] |
| O=C(/C=C/c1ccccc1[N+](=O)[O-])Nc1ccccc1 | inconclusive: 14.1 µM [quencher, partial curve] |
| CCOc1ccc(N=Nc2c(=O)[nH]n3c(C)cc(C)nc23)cc1 | inconclusive: 2.51 µM [quencher, side channel, full curve] |
| Cc1ccc2oc(-c3ccc(C)c(NC(=O)Cc4cccs4)c3)nc2c1 | inactive |
| COC(=O)Cn1c(=O)c2c(nc3n2CCCN3CCc2ccccc2)n(C)c1=O | inactive |
| CC(=C/c1ccccc1)/C=N/n1cnnc1 | inconclusive: 22.4 µM [quencher, side channel, partial curve] |
| Cn1cc([N+](=O)[O-])c(C(=O)N/N=C/c2ccncc2)n1 | inconclusive: 14.1 µM [quencher, side channel, partial curve] |
| CCc1cccc(CC)c1NC(=O)Cn1c(-c2ccccc2Cl)nc2ccccc21 | inconclusive: 0.158 µM [quencher, side channel, full curve, poor fit] |
| COc1ccc(C(=O)C(CN2CCOCC2)c2ccccc2)cc1 (stereo unspecified) | inactive |
| COc1ccc([N+](=O)[O-])cc1NC(=O)CSc1nccc(C)n1 | inconclusive: 31.6 µM [quencher, side channel, partial curve] |
| COC(=O)c1ccc(-c2nc3ccc(C)cc3o2)cc1 | inactive |
| Cc1cccc(C)c1NC(=O)CCS(=O)(=O)c1cccc2nonc12 | inconclusive: 14.1 µM [quencher, side channel, partial curve] |

| SMILES | Potency |
| --- | --- |
| COCCNC(=O)/C(C#N)=C/c1ccc(O)c([N+](=O)[O-])c1 | inconclusive: 17.8 µM [quencher, partial curve] |
| CCNC(=S)N(Cc1cc2cc(C)ccc2[nH]c1=O)C1CCCC1 | inconclusive: 1.78 µM [fluorescent, side channel, partial curve] |
| Cc1ccc(OCc2nc(C#N)c(N3CCCC3)o2)cc1 | inconclusive: 39.8 µM [quencher, side channel, single point] |
| C/C(CC(=O)Nc1ccc(Cl)c(C(F)(F)F)c1)=N\NC(=O)c1cnccn1 | inactive |
| COc1ccccc1CNC(=O)CCNS(=O)(=O)c1cccc2nsnc12 | inconclusive: 15.8 µM [quencher, partial curve] |
| OCCNc1nc(-c2ccccc2)c2cc(Cl)ccc2n1 | inconclusive: 11.2 µM [quencher, side channel, partial curve] |
| COc1ccc(NC(C)=O)cc1S(=O)(=O)N1CCN(C(=O)c2ccccc2F)CC1 | inactive |
| COc1ccc(C2C(C#N)=C(N)Oc3c2c(C)nn3-c2ccccc2)cc1Cn1nc(C)c([N+](=O)[O-])c1C (stereo unspecified) | inconclusive: 25.1 µM [quencher, side channel, partial curve] |
| O=[N+]([O-])c1cccc(-c2nc3ccc([N+](=O)[O-])cc3[nH]2)c1 | inconclusive: 2.82 µM [quencher, side channel, partial curve, poor fit] |
| CCc1ccccc1N(CC(=O)N/N=C/c1ccc(OC(=O)OC)c(OC)c1)S(C)(=O)=O | inactive |
| Cc1ccc(NC(=O)C(C)OC(=O)CCNS(=O)(=O)c2ccc(C)cc2)cc1 (stereo unspecified) | inactive |
| O=C(c1c[nH]c2ccc(F)cc2c1=O)N1CCCCCC1 | inconclusive: 63.1 µM [inhibitor, single point] |
| Cc1cc(C)c2c(-n3cccc3)c(C(=O)O)sc2n1 | inactive |
| CN1CCN(C(=O)c2ccc3c(c2)N(C)C(=O)/C(=C/c2cccc(Cl)c2)S3)CC1 | inconclusive: 25.1 µM [quencher, side channel, partial curve] |
| C=CCn1c(C)c(C(C)=O)c(N2CCCC2)nc1=S | inactive |
| O=c1c2cnn(-c3ccccc3)c2nnn1Cc1ccccn1 | inconclusive: 15.8 µM [quencher, side channel, partial curve] |
| COc1ccc2c(c1)c(/C=C/c1cc[n+](C)cc1)cn2C | inconclusive: 8.91 µM [quencher, side channel, partial curve] |
| CCc1ccc2nc(SCC(=O)N3CC(=O)Nc4ccccc43)c(C#N)cc2c1 | inactive |
| N#CC1=C2SCC(O)(c3ccccc3)N2C(=O)CC1c1cccs1 (stereo unspecified) | inconclusive: 15.8 µM [quencher, partial curve] |
